According to a collection of fitness landscapes (doi:10.1016/j.celrep.2020.107928):
In all, about 81,000 sequences were measured (“one-hybrid fitness for binding parS DNA”: median about -0.17, highest 2% from about 0.51 on). The list shows a part of the results.

B1: Caulobacter ParB omega fusion; a variant is named by its letters at X, in order, B8GW30 (parent)
chain: MESVVVGEPGMSEGRRGLGRGLSALLGEVDAAPAQAPGEQLGGSREAPIEILQRNPDQPRRTFREEDLEDLSNSIREKGVLQPILVRPSPDTAGEYQIVAGERAWRAAQRAGLKTVPIMVRELDDLAVLEIGIIENVQRADLNVLEEALSYKVLMEKFERTQENIAQTIGKSXSHVANXMRLLXLPDEVQSYLVSGELTAXHARAIAAAADPVALAKQIIEGGLSVRETEALARKAPNLSAGKSKGGRPPRVKDTDTQALESDLSSVLGLDVSIDHRGSTGTLTITYATLEQLDDLCNRLTRGI

Variants of: B1
Test: one-hybrid fitness for binding parS DNA (scaled: cognate 1, non-cognate 0); higher = stronger binding
Conditions: with parS DNA site
Procedure, shortened: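 Pre- and post-selection plasmids were Illumina-sequenced, three replicate libraries were pooled, and any variant with under 10 reads was removed. The libraries were Caulobacter ParB with four specificity codons randomised, selected in E. coli USO through a HIS3 reporter whose site is 19 bp from the promoter. Cells grew 48 hours at 37°C on M9 without histidine, with 0.1 mM IPTG and 5 mM 3-AT. Fitness is the log change in variant-to-wild-type read ratio, rescaled against cognate and non-cognate.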

| Variant | one-hybrid fitness for binding parS DNA |
| --- | --- |
| QHPH | ≤ 0.2 |
| DHTT | ≤ 0.2 |
| EIHR | ≤ 0.2 |
| QVMP | ≤ 0.2 |
| PQGA | ≤ 0.2 |
| QQHA | ≤ 0.2 |
| HIWT | ≤ 0.2 |
| GDRL | ≤ 0.2 |
| TAWL | ≤ 0.2 |
| NLLT | ≤ 0.2 |
| LIQG | ≤ 0.2 |
| GVQG | ≤ 0.2 |
| NSRL | ≤ 0.2 |
| RKVM | 0.285 |
| TCHR | ≤ 0.2 |
| NTCM | ≤ 0.2 |
| ALHQ | ≤ 0.2 |
| SSPS | ≤ 0.2 |
| DGIT | ≤ 0.2 |
| SAMI | ≤ 0.2 |
| MTGG | ≤ 0.2 |
| NPKT | ≤ 0.2 |
| MMAL | ≤ 0.2 |
| ARNC | ≤ 0.2 |
| INNT | ≤ 0.2 |
| CCSA | ≤ 0.2 |

| Variant | one-hybrid fitness for binding parS DNA |
| --- | --- |
| SLWI | ≤ 0.2 |
| TTLE | ≤ 0.2 |
| SKYG | ≤ 0.2 |
| PLRQ | ≤ 0.2 |
| PHDL | ≤ 0.2 |
| PKAY | ≤ 0.2 |
| DLLW | ≤ 0.2 |
| PWYS | ≤ 0.2 |
| PLMK | ≤ 0.2 |
| AWPV | ≤ 0.2 |
| CHGG | ≤ 0.2 |
| MINR | ≤ 0.2 |
| NEEI | ≤ 0.2 |
| NCLA | ≤ 0.2 |
| SCWT | ≤ 0.2 |
| WQLA | ≤ 0.2 |
| QRSW | ≤ 0.2 |
| SQYS | ≤ 0.2 |
| QPKN | ≤ 0.2 |
| YGYN | ≤ 0.2 |
| SQTV | ≤ 0.2 |
| WTHK | ≤ 0.2 |
| WHAK | ≤ 0.2 |
| VTLP | ≤ 0.2 |
| HQNQ | ≤ 0.2 |
| YFEC | ≤ 0.2 |

| Variant | one-hybrid fitness for binding parS DNA |
| --- | --- |
| YPPR | ≤ 0.2 |
| PRDT | ≤ 0.2 |
| TDDN | ≤ 0.2 |
| LRDG | ≤ 0.2 |
| YLCC | ≤ 0.2 |
| AYLY | ≤ 0.2 |
| WLCL | ≤ 0.2 |
| QMWE | ≤ 0.2 |
| QHTD | ≤ 0.2 |
| PKYY | ≤ 0.2 |
| LDGS | ≤ 0.2 |
| SRFA | ≤ 0.2 |
| DHGC | ≤ 0.2 |
| PLQE | ≤ 0.2 |
| VPEY | ≤ 0.2 |
| DARC | ≤ 0.2 |
| LRRT | ≤ 0.2 |
| LSHG | ≤ 0.2 |
| YRRV | ≤ 0.2 |
| GYID | ≤ 0.2 |
| CYDG | ≤ 0.2 |
| QNWN | ≤ 0.2 |
| EIPS | ≤ 0.2 |
| WGAF | ≤ 0.2 |
| INDN | ≤ 0.2 |
| RLWK | ≤ 0.2 |

| Variant | one-hybrid fitness for binding parS DNA |
| --- | --- |
| CSER | ≤ 0.2 |
| IRLG | ≤ 0.2 |
| HSFS | ≤ 0.2 |
| PLPD | ≤ 0.2 |
| PYPH | ≤ 0.2 |
| QKPR | ≤ 0.2 |
| KRIW | ≤ 0.2 |
| GANF | ≤ 0.2 |
| MWAG | ≤ 0.2 |
| KRCM | ≤ 0.2 |
| FYWG | ≤ 0.2 |
| FCPL | ≤ 0.2 |
| TADH | ≤ 0.2 |
| YGWR | ≤ 0.2 |
| AWAL | ≤ 0.2 |
| YKAS | ≤ 0.2 |
| DHHR | ≤ 0.2 |
| CAGG | ≤ 0.2 |
| WQMV | ≤ 0.2 |
| HGYW | ≤ 0.2 |
| PKRD | ≤ 0.2 |
| SAYG | ≤ 0.2 |
| HVQR | ≤ 0.2 |
| CGLY | ≤ 0.2 |
| AASV | ≤ 0.2 |
| WVMW | ≤ 0.2 |

| Variant | one-hybrid fitness for binding parS DNA |
| --- | --- |
| HHPM | ≤ 0.2 |
| SHAW | ≤ 0.2 |
| KTNL | ≤ 0.2 |
| TALW | ≤ 0.2 |
| TYGA | ≤ 0.2 |
| VPRP | ≤ 0.2 |
| TLDC | ≤ 0.2 |
| EAWM | ≤ 0.2 |
| STIT | ≤ 0.2 |
| RHNN | 0.386 |
| TMMT | ≤ 0.2 |
| RKKN | 0.356 |
| RYAV | ≤ 0.2 |
| LITW | ≤ 0.2 |
| YLAI | ≤ 0.2 |
| RELN | ≤ 0.2 |
| QARE | ≤ 0.2 |
| QISQ | ≤ 0.2 |
| LNVN | ≤ 0.2 |
| RCVR | ≤ 0.2 |
| RMFD | ≤ 0.2 |
| GKME | ≤ 0.2 |
| WVMT | ≤ 0.2 |
| LKSL | ≤ 0.2 |
| SKPT | ≤ 0.2 |
| GCRA | ≤ 0.2 |

| Variant | one-hybrid fitness for binding parS DNA |
| --- | --- |
| HHRA | ≤ 0.2 |
| QKVT | ≤ 0.2 |
| CHAV | ≤ 0.2 |
| HEPS | ≤ 0.2 |
| VHIL | ≤ 0.2 |
| HSSS | ≤ 0.2 |
| HTVR | ≤ 0.2 |
| TQRC | ≤ 0.2 |
| EYPT | ≤ 0.2 |
| WAWW | ≤ 0.2 |
| QFPR | ≤ 0.2 |
| SILW | ≤ 0.2 |
| AHGV | ≤ 0.2 |
| TFNK | ≤ 0.2 |
| YIPL | ≤ 0.2 |
| SRMG | ≤ 0.2 |
| KIAR | ≤ 0.2 |
| QVTN | ≤ 0.2 |
| HWAN | ≤ 0.2 |
| SNVL | ≤ 0.2 |
| PGNT | ≤ 0.2 |
| LQAW | ≤ 0.2 |
| IESS | ≤ 0.2 |
